“And” between values parts separate entries of the source, which are not always exact repeats. Identical values can stand only once. About 64,000 (15%) of roughly 420,000 compounds were called active. Inconclusive means that the source gave no clear call. Such entries were picked first, then a sample of the others. The call rests on the fitted dose curve; in most records, active means well fitted inhibition curve with a large enough effect; inconclusive means small, poorly fitted or top-dose-only effect; inactive means flat fitted curve, though single readings scatter. A potency beside an inconclusive call is a rough fit, not a confirmed value.
Assay: qHTS for Inhibitors of human tyrosyl-DNA phosphodiesterase 1 (TDP1): qHTS in cells in absence of CPT; further: nearly all actives have a fitted effect of over 55% in size
Settings: DT40 Tdp1-/- hTDP1 cells, no CPT, ATP luminescence, 48 h; activity change, negative = growth inhibition: at 46.2 µM (top of the series)
Summary of the method: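 Stably hTDP1-transfected Tdp1-null chicken DT40 cells were treated with library compounds minus camptothecin and grown for at least 48 hr at 37 °C, after which cellular ATP was quantified by luminescence.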
On the % scale 0 is the no-effect control and ±100 the full control effect; potency means the concentration at half of the fitted maximal effect; tags describe the fitted curve by direction and shape.

Row | SMILES | Potency | activity change, negative = growth inhibition
1 | S=C(c1ccc(-c2ccccc2)o1)N1CCCCC1 | inconclusive: 25.9 µM [inhibitor, single point] | 
2 | CC(C)CC1C(=O)N(Cc2cn(CCC3OCCO3)nn2)CCS(=O)(=O)N1Cc1ccc(-c2ccc(F)nc2)cc1 (stereo not drawn) | inactive | 
3 | COc1ccc(N2CCN(C(=O)c3cc4ccc5cccnc5c4[nH]3)CC2)cc1 | inconclusive: 29.1 µM [inhibitor, single point] | 
4 | CC1(C)CCC2(C(=O)O)CC[C@]3(C)C(=CCC4[C@]5(C)CCC(O)C(C)(C)C5C(O)C[C@]43C)C2C1 (stereo partly drawn) | inactive | 
5 | CCCNC(=O)C1(C)CCN(C(=O)c2ccccc2OC)C1 (stereo not drawn) | inactive | 
6 | O=C(NCc1cccc(C(F)(F)F)c1)c1ccc2sc(COCCO)nc2c1 | inconclusive: 14.6 µM [inhibitor, partial curve] | 
7 | COCCNC(=O)C1Cc2c(ccc3ccccc23)O1 (stereo not drawn) | inactive | 
8 | COc1ccccc1NS(=O)(=O)c1cccc(C(=O)N/N=C2\CC(=O)CC(C)(C)C2)c1 | inactive | 
9 | CCCCCCOC(=O)C1=C(C)NC(=O)NC1c1ccc(O)cc1 (stereo not drawn) | inconclusive: 29.1 µM [inhibitor, single point] | 
10 | Cc1cccc(-c2nnn3c2nc(NCCc2ccc(S(N)(=O)=O)cc2)c2cc(Cl)ccc23)c1 | active: 5.8 µM | 
11 | CCCNC(=O)CS(=O)(=O)c1ccccc1 | inactive | 
12 | C/C(=N\NC(=O)c1c(Cl)c(C)nn1C)c1cccc(NC(=O)COc2ccccc2)c1 | inconclusive: 11.2 µM [inhibitor, partial curve] | 
13 | COc1cc(-c2cnc3ccccc3c2)cc2c1OCCN(S(=O)(=O)C[C@]13CC[C@H](CC1=O)C3(C)C)C2 | inconclusive: 20.6 µM [inhibitor, single point] | 
14 | CCOc1cc(/C=C2/C(=N)N3OC(C)=CC3=NC2=O)ccc1OCCOc1ccccc1 | inconclusive: 18.4 µM [inhibitor, partial curve] | 
15 | O=C(/C=C/c1ccco1)NCC(=O)N/N=C/c1ccc([N+](=O)[O-])cc1 | inconclusive: 18.4 µM [inhibitor, single point] | 
16 | CC1CCC(NC(=O)CN2C(=O)c3ccccc3S2(=O)=O)CC1 (stereo not drawn) | inactive | 
17 | CCc1nc(N2CCN(C(=O)c3ccco3)CC2)c2oc3ccccc3c2n1 | active: 20.6 µM | 
18 | CN(C)N1C(N)=C(C#N)C(c2cccc([N+](=O)[O-])c2)C2=C1CC(C)(C)CC2=O (stereo not drawn) | inactive | 
19 | CCc1nnc(NC(=O)CSc2nnc3c(n2)[nH]c2ccccc23)s1 | inconclusive: 6.51 µM [inhibitor, single point] | 
20 | Cc1cccc(NC(=O)COC(=O)CC2CCCC2)c1C | inactive | 
21 | Cc1sc2nc3ccc(N4CCCC4)nn3c(=O)c2c1C | inconclusive: 29.1 µM [inhibitor, single point] | 
22 | Cc1ccc2nc(-c3ccc(NC(=O)CSc4nc(N)cc(=O)[nH]4)cc3)sc2c1 | inactive | 
23 | CCO[C@H]1OC(C(=O)NCc2ccccc2)=C[C@@H](c2ccccc2)[C@@H]1CCCO | inconclusive: 32.6 µM [inhibitor, single point] | 
24 | COc1ncc2nc(-c3cn(C)c4ccccc34)c(=O)n(Cc3ccc(F)cc3)c2n1 | inactive | 
25 | O=C(c1ccc(-c2cccc(C(F)(F)F)c2)o1)N1CCCC(C(F)(F)F)C1 (stereo not drawn) | inconclusive: 29.1 µM [inhibitor, single point] | 

Row | SMILES | Potency | activity change, negative = growth inhibition
26 | O=S1(=O)CC(N2CCCCC2)CN1Cc1ccc(F)cc1 (stereo not drawn) | inactive | 
27 | COc1ccc2cc(C(=O)NCc3ccco3)c(=O)oc2c1 | inactive | 
28 | Cc1cc(C(=O)CSc2nc3ccc(Cl)cc3[nH]2)c(C)n1CC1CCCO1 (stereo not drawn) | active: 5.8 µM | 
29 | COc1ccccc1CCC(=O)Nc1nccs1 | inconclusive: 29.1 µM [inhibitor, single point] | 
30 | CC(=O)c1ccc(OCC(=O)c2ccc(-c3ccccc3)cc2)cc1 | inconclusive: 29.1 µM [inhibitor, single point] | 
31 | CCOC(=O)c1ccc(CN(Cc2ccc(C)cc2)S(=O)(=O)c2cccc([N+](=O)[O-])c2)cc1 | inconclusive: 16.4 µM [inhibitor, single point] | 
32 | CCN1C(=NCCOC)N[C@@H](c2ccccc2)[C@H](C(=O)OC)[C@H]1C | inactive | 
33 | CCOc1ccc2[nH]c(=O)c(CN(CCN3CCCC3)C(=S)Nc3ccccc3OC)cc2c1 | inactive | 
34 | CCC(C)(C)n1nnnc1C(c1cc2ccc(OC)cc2[nH]c1=O)N1CCCCC1 (stereo not drawn) | inconclusive: 13 µM [inhibitor, partial curve] | 
35 | Cc1cccc(Sc2c([N+](=O)[O-])ncn2C)c1 | active: 23.1 µM | 
36 | COc1ccc(N(C(=O)c2csnn2)C(C(=O)NC2CCCC2)c2cccs2)cc1 (stereo not drawn) | inactive | 
37 | COC(=O)c1cc2ccccc2c(-c2c(O)ccc3ccccc23)c1O | inconclusive: 29.1 µM [inhibitor, single point] | 
38 | CCOc1ccccc1NC(=O)C1C(c2ccccc2)C1(Cl)Cl (stereo not drawn) | inconclusive: 29.1 µM [inhibitor, single point] | 
39 | COc1ccc(CNC(=O)C2CCCN(c3nccc(C)n3)C2)cc1 (stereo not drawn) | inconclusive: 4.11 µM [inhibitor, full curve] | 
40 | O=C(CNC(=O)c1ccccc1)OC(C(=O)Nc1cc(C(F)(F)F)ccc1Cl)c1ccccc1 (stereo not drawn) | inconclusive: 35.5 µM [inhibitor, single point] | 
41 | COc1ccccc1Oc1nc(-c2cccnc2)nc2ccccc12 | active: 20.6 µM | 
42 | Cc1ccc(C(C)(C)C)c(OCCN2CCCC2)c1 | inconclusive: 29.1 µM [inhibitor, single point] | 
43 | Cc1ccc(C(=O)NC(NCc2ccco2)C(Cl)(Cl)Cl)cc1 (stereo not drawn) | inconclusive: 16.4 µM [inhibitor, single point] | 
44 | CCCCCCCCCCS(=O)(=O)N/N=C/c1ccc(O)cc1 | inconclusive: 29.1 µM [inhibitor, single point] | 
45 | COc1cc(OC)cc(C(=O)N[C@H](C(=O)Nc2cccc(S(=O)(=O)N3CCCC3)c2)C(C)C)c1 | inconclusive: 18.4 µM [inhibitor, single point] | 
46 | Cc1ccc2nc(Cl)c(/C=N/n3c(C)nnc3C)cc2c1 | active: 20.6 µM | 
47 | C=CCNC(=O)C1CC(=O)N(c2ccc(OCc3ccccc3Cl)cc2)C1 (stereo not drawn) | inconclusive: 25.9 µM [inhibitor, single point] | 
48 | CC(NC(=O)c1ccccc1NC(=O)c1nsc2ccccc12)c1ccccc1 (stereo not drawn) | inconclusive: 23.1 µM [inhibitor, single point] | 
49 | COc1ccccc1NC(=O)Nc1nc(CC(=O)NCc2ccc(F)cc2)cs1 | active: 16.4 µM | 
50 | Cc1ccc(F)c(NC(=O)CCOc2ccccc2C)c1 | inactive | 

Row | SMILES | Potency | activity change, negative = growth inhibition
51 | CNC(=O)c1cc(Nc2nnc(-c3ccc(O)cc3)c3ccccc23)ccc1OC | inconclusive: 23.1 µM [inhibitor, partial curve, poor fit] and inconclusive: 29.1 µM [inhibitor, single point] | 
52 | Fc1ccc(-n2cc(-c3ccccc3)[n+]3c2SCC3)cc1 | inconclusive: 23.1 µM [inhibitor, single point] | 
53 | Clc1ccc(N2CCN(c3ncnc4c3oc3ccccc34)CC2)cc1 | active: 14.1 µM | 
54 | O=C1CC(NS(=O)(=O)c2ccc3ccccc3c2)CN1c1ccccc1 (stereo not drawn) | inconclusive: 29.1 µM [inhibitor, single point] | 
55 | Fc1cc(Br)ccc1Nc1c2c(nc3nc(-c4cccs4)nn13)CCCC2 | active: 18.4 µM | 
56 | O=C1CCCc2cc(S(=O)(=O)NCC3CCC(C(=O)Nc4ccccc4F)CC3)ccc2N1 (stereo not drawn) | inconclusive: 20.6 µM [inhibitor, single point] | 
57 | Cc1ccc(C)c(SCC(=O)c2ccc[nH]2)c1 | inconclusive: 29.1 µM [inhibitor, single point] | 
58 | CC1COc2ccccc2N1C(=O)c1ccccc1Cl (stereo not drawn) | inconclusive: 13 µM [inhibitor, partial curve, poor fit] | 
59 | CCC(C)NC(=O)C1CCN(S(=O)(=O)c2ccc(Br)s2)CC1 (stereo not drawn) | inactive | 
60 | O=C(c1ccc(Cn2cc([N+](=O)[O-])cn2)o1)N1N=C(C(F)F)CC1(O)C(F)F (stereo not drawn) | inactive | 
61 | Cc1ccc(CNC(=O)c2ccccc2NC(=O)CN2CC(C)OC(C)C2)cc1 (stereo not drawn) | inconclusive: 29.1 µM [inhibitor, single point] | 
62 | C/C(=N\Nc1cccc(C(=O)O)c1)c1ccc2c(c1)Nc1ccccc1S2 | inconclusive: 25.9 µM [inhibitor, single point] | 
63 | O=C(CS(=O)(=O)c1cn(Cc2cccc(F)c2)c2ccccc12)N1CCCCC1 |  | inconclusive: -33.8% [inhibitor]
64 | CC1CCCN(c2ccc(F)cc2N)C1 (stereo not drawn) | inconclusive: 23.1 µM [inhibitor, single point] | 
65 | CS(=O)(=O)N(CC(=O)NCCSCc1ccccc1Cl)c1ccc(F)cc1 | inconclusive: 29.1 µM [inhibitor, single point] | 
66 | CC(C)NC(=O)c1ccc(-c2cccc(C(F)(F)F)c2)o1 | inactive | 
67 | CCc1cccc(C)c1NC(=O)CN(C)Cc1ccc(Br)cc1 | inconclusive: 13 µM [inhibitor, partial curve] | 
68 | CC1CCCCC1NC(=O)CCC(=O)N1CCOc2ccc(Cl)cc21 (stereo not drawn) | inactive | 
69 | Cc1ccc2c(c1)N(CC(=O)NC1CCCCC1)C(=O)c1cccnc1O2 | inactive | 
70 | Cc1nc2ccc([N+](=O)[O-])cc2c(=O)n1Cc1cccc(Br)c1 | inactive | 
71 | COc1ccc(-c2nc3ccc(NC(C)=O)cc3c(=O)n2Cc2ccccc2)cc1COc1ccc(NC(C)=O)cc1 | active: 11.2 µM | 
72 | CN(CC(=O)Nc1ccc(F)cc1)CC(=O)NC1CCCCC1 | inactive | 
73 | CS(=O)(=O)N(CC(=O)N1CCN(Cc2ccc3c(c2)OCO3)CC1)Cc1ccc(Cl)cc1 | inconclusive: 22.4 µM [inhibitor, single point] | 

— PubChem BioAssay AID686978 (National Center for Advancing Translational Sciences (NCATS), 2013)
